The target of assay [1] is T1, GST-G9a (aa 1-280) (human) (UniProt Q96KQ7).
T1 sequence: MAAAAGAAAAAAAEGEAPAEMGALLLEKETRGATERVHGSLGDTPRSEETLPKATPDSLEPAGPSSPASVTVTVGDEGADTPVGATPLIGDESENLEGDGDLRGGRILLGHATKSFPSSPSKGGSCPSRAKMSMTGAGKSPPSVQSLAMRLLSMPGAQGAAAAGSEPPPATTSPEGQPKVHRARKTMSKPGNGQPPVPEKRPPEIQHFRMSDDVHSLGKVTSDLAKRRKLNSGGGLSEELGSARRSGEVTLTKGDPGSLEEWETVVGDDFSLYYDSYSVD
Put plainly: pull-down; GST or GST fused to hG9a fragments bound to glutathione-agarose beads, incubated with in vitro synthesized Flag-tagged protein; bound protein detected by immunoblot with anti-Flag; only the target purified. Background: In western blotting, separated proteins are transferred to a membrane and probed.

By UniProt entry, the sequences of proteins in these tests, tags left out. Where a name states a change or a piece, a line headed by the entry shows the natural chain unless it says otherwise. Chains listed by the source or under a name are the forms on record and can include a tag or linker. Residues count along the entry.
UniProt P04150: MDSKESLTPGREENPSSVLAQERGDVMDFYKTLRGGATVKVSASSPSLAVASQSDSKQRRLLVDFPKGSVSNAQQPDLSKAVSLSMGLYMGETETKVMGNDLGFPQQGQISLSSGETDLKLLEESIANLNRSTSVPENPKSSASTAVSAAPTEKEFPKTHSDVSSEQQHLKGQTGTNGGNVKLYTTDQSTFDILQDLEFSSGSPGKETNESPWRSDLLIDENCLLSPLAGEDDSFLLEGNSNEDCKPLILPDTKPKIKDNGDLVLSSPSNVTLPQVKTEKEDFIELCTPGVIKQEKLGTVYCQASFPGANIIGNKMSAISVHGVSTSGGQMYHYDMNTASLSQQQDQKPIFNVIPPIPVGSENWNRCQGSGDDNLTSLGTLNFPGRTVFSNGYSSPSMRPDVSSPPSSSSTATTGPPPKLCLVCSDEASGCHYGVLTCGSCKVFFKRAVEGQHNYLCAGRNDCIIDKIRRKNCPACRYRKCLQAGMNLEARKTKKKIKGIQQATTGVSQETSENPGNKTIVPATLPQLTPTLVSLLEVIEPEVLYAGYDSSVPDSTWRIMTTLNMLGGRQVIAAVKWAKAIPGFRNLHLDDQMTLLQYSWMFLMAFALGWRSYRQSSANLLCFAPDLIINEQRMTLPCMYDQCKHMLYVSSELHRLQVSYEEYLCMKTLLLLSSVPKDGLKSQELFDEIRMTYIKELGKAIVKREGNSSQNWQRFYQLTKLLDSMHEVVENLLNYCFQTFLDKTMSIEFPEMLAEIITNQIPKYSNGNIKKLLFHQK
MYC-G9a SET (Q9Z148, residues 1091-1208): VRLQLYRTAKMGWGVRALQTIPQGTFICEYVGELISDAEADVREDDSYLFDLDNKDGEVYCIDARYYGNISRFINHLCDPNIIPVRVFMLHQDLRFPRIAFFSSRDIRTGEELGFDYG
Myc-G9a WT (Q9Z148-2, form named): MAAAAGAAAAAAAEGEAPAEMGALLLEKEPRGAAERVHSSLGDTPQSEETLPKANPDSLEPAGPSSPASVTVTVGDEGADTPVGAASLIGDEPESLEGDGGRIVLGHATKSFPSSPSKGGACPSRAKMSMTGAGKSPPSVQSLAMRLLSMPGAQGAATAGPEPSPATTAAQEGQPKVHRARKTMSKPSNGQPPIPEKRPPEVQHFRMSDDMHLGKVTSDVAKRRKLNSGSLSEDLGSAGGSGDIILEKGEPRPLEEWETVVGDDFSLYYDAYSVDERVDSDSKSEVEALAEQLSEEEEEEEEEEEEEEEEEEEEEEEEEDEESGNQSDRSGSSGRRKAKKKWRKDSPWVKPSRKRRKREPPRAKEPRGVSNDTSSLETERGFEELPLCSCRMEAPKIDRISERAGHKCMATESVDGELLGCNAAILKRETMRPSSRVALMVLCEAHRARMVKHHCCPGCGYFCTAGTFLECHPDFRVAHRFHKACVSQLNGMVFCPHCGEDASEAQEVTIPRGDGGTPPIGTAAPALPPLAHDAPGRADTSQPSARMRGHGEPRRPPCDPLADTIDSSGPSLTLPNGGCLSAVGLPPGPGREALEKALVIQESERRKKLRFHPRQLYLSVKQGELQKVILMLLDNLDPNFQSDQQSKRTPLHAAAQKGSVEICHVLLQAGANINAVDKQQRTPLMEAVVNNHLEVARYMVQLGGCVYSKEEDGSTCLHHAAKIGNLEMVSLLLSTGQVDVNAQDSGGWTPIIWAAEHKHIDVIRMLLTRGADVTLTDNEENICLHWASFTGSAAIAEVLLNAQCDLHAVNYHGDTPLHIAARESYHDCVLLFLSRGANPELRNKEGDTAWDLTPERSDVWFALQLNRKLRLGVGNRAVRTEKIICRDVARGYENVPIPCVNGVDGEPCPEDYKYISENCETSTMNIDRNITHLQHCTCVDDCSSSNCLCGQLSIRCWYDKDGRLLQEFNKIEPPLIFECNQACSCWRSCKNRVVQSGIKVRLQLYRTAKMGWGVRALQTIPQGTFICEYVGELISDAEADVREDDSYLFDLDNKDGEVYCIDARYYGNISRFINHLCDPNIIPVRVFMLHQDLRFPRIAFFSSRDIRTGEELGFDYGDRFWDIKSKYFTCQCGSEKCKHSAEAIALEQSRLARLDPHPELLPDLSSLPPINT

Assay [2] deals with GST-G9a (aa 200–1210) (human) (UniProt Q96KQ7). The assay is described as above.
A further assay deals with T2, Flag-mPrdm12 WT (mouse) (UniProt A2AJ77).
T2 sequence: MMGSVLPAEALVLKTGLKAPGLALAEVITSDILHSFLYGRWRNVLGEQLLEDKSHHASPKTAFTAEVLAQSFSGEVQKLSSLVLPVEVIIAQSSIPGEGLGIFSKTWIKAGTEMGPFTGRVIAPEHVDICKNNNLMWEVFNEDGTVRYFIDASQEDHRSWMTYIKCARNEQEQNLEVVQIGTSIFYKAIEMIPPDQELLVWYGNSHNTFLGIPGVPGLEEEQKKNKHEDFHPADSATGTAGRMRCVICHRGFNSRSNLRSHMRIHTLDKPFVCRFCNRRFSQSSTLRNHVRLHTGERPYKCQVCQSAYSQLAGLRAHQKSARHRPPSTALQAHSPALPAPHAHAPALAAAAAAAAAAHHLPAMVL
Put plainly: co-IP; HEK293T cells co-transfected; lysis in IPH buffer (150 mM NaCl, 5 mM EDTA pH 8.0, 50 mM Tris pH 8.0, 1% NP-40); immunoprecipitation with anti-Flag antibodies overnight at 4°C, Protein A Sepharose; western blot with anti-Flag or anti-Myc.

Results are given in words; binding and its absence hold for the method and conditions named. Binding seen in cells or lysates may run through a third protein. Some binding calls cover weakened binding; strength is not graded here. Tags and fused reporters may be left off the sequences shown.

Take “Flag human glucocorticoid receptor protein (hGR) (from UniProt P04150 1-777)”: the binding entry in assay [1] and in assay [2] was “binds” each time. “MYC-G9a SET (from UniProt Q9Z148 1091-1208) (domain or fragment)”: the binding result with Flag-mPrdm12 WT (mouse) was “binds”.

As to “Myc-G9a WT (from UniProt Q9Z148-2 1-1172)”, the binding entry with Flag-mPrdm12 WT (mouse) is reported as “binds”.

B1: full length Flag-human Prdm12 (protein, UniProt Q9H4Q4 1-367)
chain: MMGSVLPAEALVLKTGLKAPGLALAEVITSDILHSFLYGRWRNVLGEQLFEDKSHHASPKTAFTAEVLAQSFSGEVQKLSSLVLPAEVIIAQSSIPGEGLGIFSKTWIKAGTEMGPFTGRVIAPEHVDICKNNNLMWEVFNEDGTVRYFIDASQEDHRSWMTYIKCARNEQEQNLEVVQIGTSIFYKAIEMIPPDQELLVWYGNSHNTFLGIPGVPGLEEDQKKNKHEDFHPADSAAGPAGRMRCVICHRGFNSRSNLRSHMRIHTLDKPFVCRFCNRRFSQSSTLRNHVRLHTGERPYKCQVCQSAYSQLAGLRAHQKSARHRPPSTALQAHSPALPAPHAHAPALAAAAAAAAAAAAHHLPAMVL
Consider B1, for which the figures for the binding result in assay [1] and in assay [2] were “no binding” and “binds”, respectively.
